# From paper PMC12136788
# The list shows a part of the results.
# T1: UNK ZnF1-6 (called full-length) (human, UniProt Q9C0B0 30-357)
# T1 sequence: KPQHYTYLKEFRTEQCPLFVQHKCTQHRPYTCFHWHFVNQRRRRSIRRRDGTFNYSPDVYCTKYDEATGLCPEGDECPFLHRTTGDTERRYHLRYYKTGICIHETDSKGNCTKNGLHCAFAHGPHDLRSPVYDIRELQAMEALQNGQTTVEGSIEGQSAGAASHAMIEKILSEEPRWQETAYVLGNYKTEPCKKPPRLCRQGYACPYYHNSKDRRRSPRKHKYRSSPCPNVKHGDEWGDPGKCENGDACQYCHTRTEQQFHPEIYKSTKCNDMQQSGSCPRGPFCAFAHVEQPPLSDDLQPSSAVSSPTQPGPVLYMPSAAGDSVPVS
# B1: chr6:52279506:52279615:-|CDS|ENSG00000112118|unk|FALSE|unique (ssRNA)
# RNA: GGGAGUUCUACAGUCCGACGAUCUGAGUGUGGCAUUUUUAAGACAGGACGGAGAUCACUCUGUCCCUCUGUGUGCCUUUUUCUAGGAUGAGGAGAACAAUCCCCUUGAGACAGAAUAUGGCCUUUCUGUCUACAAGGAUCACCCAACAGAGGAUUGAGCAUCA
# B2: chr11:61403655:61403707:-|3pUTR|ENSG00000149532|msi1_unk|total|mutant (ssRNA)
# RNA: GGGAGUUCUACAGUCCGACGAUCUGAAGUAACCAGGAGGAAUGGGGAAAGAAGCAAGUUGGGCAGGAUAUGGCCUACUUCCACCGGCUUUUCUUUUUUCAGGUUUGAUGUAAGCAUGGGCUUACAUCCCCCAGGUACAUACUUCAACAGAGGAUUGAGCAUCA
# B3: chr17:69546800:69546959:+|3pUTR|ENSG00000108984|unk|total|mutant (ssRNA)
# RNA: GGGAGUUCUACAGUCCGACGAUCUCAACUUCACCGGACUUUUUUUUUUUUUAACUUUUCAAAUGGAAGGUGCAGUUUUCAAUCCGGCCUCUGAAAAUUUACACCGUCAGAUGGAAAAAUGCCAGAGUAAAAUCCCGGAAGAAGCAACAGAGGAUUGAGCAUCA
# B4: ENSG00000005810:stop:overlap|stop_codon|ENSG00000005810|stop_codon|NA|stop_codon (ssRNA)
# RNA: GGGAGUUCUACAGUCCGACGAUCCACCCACUGGGGAAGAGUUUGCUCUGGGAUGUGGAGUGUGCAGAAAUGCCCACACUUUUUAGAACACGCAGAUCCUUUGUCUACAGAGAGAAAAAUUGCCUUCAUCCCCCAAGAGGAUGCCAACAGAGGAUUGAGCAUCA
# B5: chr12:24811411:24811512:-|3pUTR|ENSG00000060982|msi1|FALSE|unique (ssRNA)
# RNA: GGGAGUUCUACAGUCCGACGAUCGUGAAGAACUCUAUAUUUGUAUGUUGAGAGGGCAUGGAAUAAUUGUAUUUUGCUGGCAAUAGACACAUUCUUUAUUAUUUGCAGAUUCCUCAUCAAAUCUGUAAUUAUGCACAGUUUCUGCAACAGAGGAUUGAGCAUCA
# B6: chr12:110350735:110350839:+|3pUTR|ENSG00000174437|unk|total|mutant (ssRNA)
# RNA: GGGAGUUCUACAGUCCGACGAUCUACAGUUUGCUUAUUUAUAAAUUCAUUAAAAACACUACAGGUGUUGAAUGGUUAAAAUGCCGGCCUCCAGUUCAUUUUCAGUUAUUUUCUGAGUGUGCAGACAGCUAUUUCGCACUGUAUCAACAGAGGAUUGAGCAUCA
# B7: ENSG00000107863:be:win_5401|CDS|ENSG00000107863|bound_else_gene|NA|bound_elsewhere_windowed (ssRNA)
# RNA: GGGAGUUCUACAGUCCGACGAUCAGACAUACACUAGGAGGGCACAGAGAUGCUACCGAAAUCAGCGUUUUGAAUUUUUGGAAAGUGCAUGAGCAGAGCGGGGAGAGAGAAUCUGAACUUUCAGCUGUAAACCGGUUAAAACCACAACAGAGGAUUGAGCAUCA
# B8: ENSG00000127995:stop:overlap|stop_codon|ENSG00000127995|stop_codon|NA|stop_codon (ssRNA)
# RNA: GGGAGUUCUACAGUCCGACGAUCUAGCUGCAUUUUUUUGUGGACUCCUCAUCUUAUCAUCCAUUCAAGAUAAAUCAAAACAUUAGGUUCCAAAAAUUCUAAAAAACCUAAACUCUUCAGGCUACCUUUGUGUGUCUCUAGAAGCAACAGAGGAUUGAGCAUCA
# B9: chr4:173384700:173388395:-|three_prime_utr|ENSG00000164106|control|control|control (ssRNA)
# RNA: GGGAGUUCUACAGUCCGACGAUCCUGGAGAACACCAUUCCUGAUUUCCCACAAACUGCACUACAUCAGUAUAACUGCAUUUCUAGUUUCUAUAUAGUGCAAUAGAGCAUAGAUUCUAUAAAUUCUUACUUGUCUAAGACAAGUCAACAGAGGAUUGAGCAUCA
# B10: chr6:139242528:139243314:-|CDS|ENSG00000164440|control|control|control (ssRNA)
# RNA: GGGAGUUCUACAGUCCGACGAUCGGUGCCUGCAUGCGAGCCCAGUAGGCAGCCCCCACGAGCAGCAGCAGAGGAGCUGCCAGUAGGGGCCUCAGCUGGGCCCCAGCCGCGCAACGUGGCUGACACCAAUCUGGAAGGCGUCGACAACAGAGGAUUGAGCAUCA
# B11: ENSG00000198589:be:win_8951|3pUTR|ENSG00000198589|bound_else_gene|NA|bound_elsewhere_windowed (ssRNA)
# RNA: GGGAGUUCUACAGUCCGACGAUCGAAAAUUUGAUGCUGUAAUUUGGGUCCUGUAUUUUUCCAAACAACUGUGCUUCUUCAGCACUAAUAUUUCUGGGAUUUAAAUAGUAAUGUUUAAAUUAUGGUAAAUGUAAUUUAAAACAUCAACAGAGGAUUGAGCAUCA
# B12: chr9:133361993:133362109:-|3pUTR|ENSG00000148248|msi1_unk|FALSE|overlapping (ssRNA)
# RNA: GGGAGUUCUACAGUCCGACGAUCGGCAGGUUUCUGCUCAUAAGUGCUUUUGGAAGUCACCUACCUUUUUAACACAGCCGAACUAGUCCCAACGCGUUUGCAAAUAUUCCCCUGGUAGCCUACUUCCUUACCCCCGAAUAUUGGCAACAGAGGAUUGAGCAUCA
# B13: chrX:117909842:117909960:-|CDS|ENSG00000003096|unk|total|mutant (ssRNA)
# RNA: GGGAGUUCUACAGUCCGACGAUCAGCACAGGGGAGUUCUUGAAACUCCCUUUUGAGCGUCUUGCCUUCGUGCUUUCCAGUAACCGCCUUAAGCACUGUACUGAACUUGAGCUCUUUAAGGCUACCUGUCGUUGGCUUCGCCUGCAACAGAGGAUUGAGCAUCA
# B14: chr3:48432659:48432768:-|CDS|ENSG00000164051|unk|total|mutant (ssRNA)
# RNA: GGGAGUUCUACAGUCCGACGAUCAGUCCCCCGACCAGAGACAGAGAUGCCGAUGUCCUUUCAGCUGCCUUGAAAGAGCAGCUCCGUCAUUCCAGGCAAGUCCAUUCAUGUCCCGAAGGCUUACGAGAGCAGCUUGAUGGCCUACAACAGAGGAUUGAGCAUCA
# Target: T1, UNK ZnF1-6 (called full-length)
# Experiment: nsRBNS (natural sequence RNA bind-n-seq); RBNS binding buffer (assumed for nsRBNS): 25 mM Tris pH 7.5, 150 mM KCl, 3 mM MgCl2, 0.01% Triton X-100, 500 ug/ml BSA, 20 U/ml SUPERase-In, 4 C; UNK is unkempt and MSI1 is Musashi-1; names of the RNAs are library labels; protein concentration not given here; high values mean tight binding
row,Binder,binding signal [enrichment R]
1,B1,0.393
2,B2,0.551
3,B3,0.522
4,B4,0.686
5,B5,1.44
6,B6,0.642
7,B7,0.693
8,B8,0.828
9,B9,1.05
10,B10,0.478
11,B11,0.552
12,B12,0.584
13,B13,0.481
14,B14,0.674
